Data published in article PMC6919601, “Identification of Plasmodium dipeptidyl aminopeptidase allosteric inhibitors by high throughput screening” (PLoS ONE, 2019).
About 230 (0.21%) of roughly 110,000 compounds showed an effect of 50% or more. The list shows a part of the results.

Target: DPAP1 (Plasmodium falciparum, UniProt Q8IIJ9)
Assay: primary screen, percent inhibition; read by cleavage of a fluorogenic dipeptide substrate; higher = more effect of the substance
Set-up: species or system P. falciparum D10 trophozoite lysates; single well
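Note: 30 min substrate incubation versus DMSO and 10 µM JCP410 controls.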

Sequence of DPAP1 (Q8IIJ9 whole entry, looked up): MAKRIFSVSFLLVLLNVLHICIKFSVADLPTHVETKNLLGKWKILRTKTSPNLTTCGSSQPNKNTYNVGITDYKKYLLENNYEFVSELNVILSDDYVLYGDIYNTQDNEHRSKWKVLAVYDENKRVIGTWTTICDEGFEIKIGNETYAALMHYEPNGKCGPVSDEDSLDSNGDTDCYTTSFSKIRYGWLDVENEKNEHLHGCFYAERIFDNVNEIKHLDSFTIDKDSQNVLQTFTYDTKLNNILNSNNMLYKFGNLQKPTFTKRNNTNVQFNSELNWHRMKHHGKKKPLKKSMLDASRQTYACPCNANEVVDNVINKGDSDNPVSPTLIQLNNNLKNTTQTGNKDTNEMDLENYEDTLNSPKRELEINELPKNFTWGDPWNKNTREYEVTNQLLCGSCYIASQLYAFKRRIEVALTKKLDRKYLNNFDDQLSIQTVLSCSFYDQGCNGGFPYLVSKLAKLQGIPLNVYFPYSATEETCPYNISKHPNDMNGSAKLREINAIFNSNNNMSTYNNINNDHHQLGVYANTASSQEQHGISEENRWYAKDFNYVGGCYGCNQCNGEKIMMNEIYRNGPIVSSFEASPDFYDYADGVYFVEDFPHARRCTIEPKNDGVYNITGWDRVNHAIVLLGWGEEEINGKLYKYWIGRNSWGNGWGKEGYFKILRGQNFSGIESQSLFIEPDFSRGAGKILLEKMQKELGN

| SMILES | % Inhibition @ 10 uM [%] |
| --- | --- |
| CCN(CC)CCCNC(=O)C1CCCN(c2nnc(C)c3c(C)n(-c4ccccc4)nc23)C1 (centres unmarked) | 6.62 |
| Cc1ccccc1C(=O)O/N=C(\N)c1ccncc1 | 3.87 |
| Cc1cn2c3ccccc3n(N)c2n1 | -2.92 |
| CC1CCC(NC(=O)Cn2ccc3cc(S(=O)(=O)N4CCCC4)ccc32)CC1 (centres unmarked) | 6.57 |
| CC1(C)CC(=O)C(CC(=O)c2ccc(Cl)cc2)=C(O)C1 | 5.13 |
| COc1ccc(C(=O)Nc2nc(-c3nnn(-c4ccc(C)c(C)c4)c3C)ns2)cc1 | -1.38 |
| CC(C)(C)c1ccc(C(=O)Nc2cc(C(N)=O)cc(C(N)=O)c2)cc1 | -1.54 |
| CCC(C)NC(=O)C1=C(C)C(=O)OC12CCCCCC2 (centres unmarked) | -5.21 |
| CSc1ccc(CN2CCN(C(=O)CC(C)C)CC2)cc1 | 4.55 |
| COCc1cc(C)nc2sc3c(c12)NC(c1ccc(O)cc1)N(Cc1ccco1)C3=O (centres unmarked) | 4.13 |
| Oc1ccc(-c2ccc(F)c(F)c2)nn1 | -2.84 |
| COc1cc(NC(=O)c2ccc(C(C)(C)C)cc2)ccc1NC(=O)c1ccco1 | -0.511 |
| CCOC(=O)c1cc(S(=O)(=O)N2CC=C(c3ccccc3)CC2)cn1C | 3.92 |
| Cc1nc2c(C(=O)N3CCC4(CC3)OCCO4)cnn2c(O)c1Cc1ccccc1Cl | -5.92 |
| CCC(Sc1nnc(C)n2c1cc1oc(C)cc12)C(=O)N1CCOCC1 (centres unmarked) | -2.26 |
| O=c1c2ccccc2nc2ccc(SCc3ccccc3)nn12 | 1.57 |
| CCOc1ccc(CNCCCSc2nnnn2-c2ccccc2)cc1 | -4.71 |
| CCCN(CCC)C/C(=N/O)C(=O)Nc1ccccc1 | -3.98 |
| COc1ccc(Br)cc1CN1CCC(Cc2ccccc2)CC1 | -4.5 |
| COc1ccc(-c2noc(CSc3nnc(CCc4ccccc4)n3C)n2)cc1 | -0.45 |
| CCCCn1c(=O)c(C(=O)Nc2ccc(C)cc2)c(O)c2ccccc21 | 2.93 |
| CC1CCC(NC(=O)CCn2ccc3cc(S(=O)(=O)N4CCCC4)ccc32)CC1 (centres unmarked) | 5.14 |
| CCOC(=O)c1c(S(=O)(=O)N2CCN(C)CC2)c(C)n(C)c1C | 1.32 |
| O=C(CN1Cc2ccccc2C1=O)N1CC=C(c2ccccc2)CC1 | -3.85 |
| FC(F)(F)c1cccc(-n2cccc2)c1 | 1.03 |

| SMILES | % Inhibition @ 10 uM [%] |
| --- | --- |
| O=C(O)C1C2C=CC(C2)C1C(=O)Nc1ccc(Oc2ccccc2)cc1 (centres unmarked) | 6.61 |
| CCc1c(C#N)c(N)nc(SCC(=O)c2ccc(C)cc2)c1C#N | 4.12 |
| Cc1ccc(F)cc1N1C(=O)c2nc(C)c(C)nc2C1=O | 6.79 |
| Cc1cc(C)c(S(=O)(=O)Nc2cc(Cl)cc(Cl)c2)c(C)c1 | -4.4 |
| CC(=O)c1c(C(C)=O)c(C)n(-c2ccc(C)cc2)c1C | 1.57 |
| N#CC1=C(N)OC2=C(C(=O)CC(c3ccccc3)C2)C12C(=O)Nc1ccc(Br)cc12 (centres unmarked) | 5.29 |
| Cc1ccc(Cn2c(SCC(C)C)nc3c2c(=O)[nH]c(=O)n3C)cc1 | -0.25 |
| O=C(OCc1ccccc1)N1CN(CCO)Cc2c1oc1ccccc1c2=O | -7.45 |
| COCc1nc2ccccc2n1CCOc1ccc(C(C)(C)C)cc1 | -4.65 |
| Cc1ccc(-c2csc(NS(=O)(=O)c3ccc(C)cc3)n2)cc1 | -0.132 |
| COc1cccc(CN2CCN(Cc3ccc(Br)cc3)CC2)c1OC | -3.37 |
| CCN(c1ccccc1)S(=O)(=O)c1ccc(NC(=O)Nc2ccc(Cl)cc2)cc1 | -9.59 |
| COc1cc(OC)c(CN2CC3(C)CC2CC(C)(C)C3)cc1Br (centres unmarked) | 4.9 |
| Cc1ccsc1C(C#N)NC(=O)[C@@H](NC(=O)OCc1ccccc1)C1CCCC1 (some centres unmarked) | -4.72 |
| CC(C)c1ccc(CN2CCN(c3ccc(F)cc3)CC2)cc1 | -1.77 |
| COc1ccc(/C=C/C(=O)NC(=S)Nc2sc3c(c2C#N)CCCC3)cc1OC | 15.2 |
| N#Cc1cc2c(nc1SCC(=O)NC1CC1)C1CCN2CC1 | -6.65 |
| O=C(Nc1ccc(Cc2ccc(NC(=O)N3CCCCC3)cc2)cc1)N1CCCCC1 | 2.38 |
| O=C(NCc1ccccc1)C1CCN(S(=O)(=O)N2CCCCCC2)CC1 | -4.06 |
| CCOc1ccccc1N1CCN(Cc2cc(Br)c(OC)cc2OC)CC1 | -3.56 |
| COc1ccc(S(=O)(=O)c2cc3ccccc3oc2=O)cc1 | -4.97 |
| Cc1ccc(Oc2ccc(C(F)(F)F)cc2NC(=O)c2cccnc2)cc1 | 2.82 |
| CC(C)=CCCCCCCN1CCN(c2ccccc2F)CC1 | -2.95 |
| N#Cc1ccccc1CSc1nc2ccccc2[nH]1 | -1.8 |
| CCCCOC(=O)CNC1CC(C)(C)NC(C)(C)C1 | -7.35 |
